Some of the results follow.

This assay has as its system HSkMC (human skeletal muscle cells). Put plainly: cytotoxicity call (relative viability < 0.9). The conditions noted are these: 10 µM.
Turning to `COc1ccc(CN(C)C[C@H]2OCCCC[C@@H](C)Oc3ccc(NC(=O)c4ccccc4)cc3C(=O)N([C@H](C)CO)C[C@H]2C)cc1`, the cytotoxicity call was “inactive”.
Turning to `CC(C)(C)C(=O)C[n+]1ccc(C(N)=O)cc1`, the cytotoxicity call is “inactive”.
For the molecule `Cl.[LiH]`, the cytotoxicity call was “inactive”.
As for `O=C(CN1CCOCC1)N[C@@H]1CC[C@@H](CCn2cc(C3CCCC3)nn2)O[C@@H]1CO`, the entry is “inactive”; as for `COCCOC(=O)N1C(=O)[C@@]2(c3cc(C#CC4=CCCCC4)ccc31)[C@H](C(=O)N1CCCCCCC1)[C@H]1C(=O)O[C@H](c3ccccc3)[C@H](c3ccccc3)N1[C@@H]2c1ccc(OCCO)cc1`, “inactive”; as for `C[C@@H]1CN([C@@H](C)CO)C(=O)c2cccc(NS(C)(=O)=O)c2O[C@H]1CN(C)S(=O)(=O)c1ccc(Cl)cc1`, “inactive”.
In the case of `C[C@@H]1CN([C@H](C)CO)C(=O)Cc2cc(NC(=O)Nc3cccc4ccccc34)ccc2O[C@H]1CN(C)C(=O)Nc1ccc2c(c1)OCO2`, the cytotoxicity call is “inactive”.
As for `CN1C(=O)c2cc(NC(=O)Cc3cccs3)ccc2OC[C@H]2O[C@@H](CC(=O)NCCc3ccncc3)CC[C@@H]21`, the entry is “inactive”.
For `Nc1nc(S)c2nc[nH]c2n1` the value was “inactive”.
As for `O=C(O)CSCC(=O)NC1CCSC1=O` (stereo not drawn), the entry is “inactive”.
On to `Cc1noc(C)c1S(=O)(=O)Nc1ccc2c(c1)CC(=O)N([C@H](C)CO)C[C@H](C)[C@H](CN(C)S(=O)(=O)c1ccc(F)cc1)O2`, for which the cytotoxicity call was “inactive”.
For `CC(C)NC(=O)N(C)C[C@@H]1Oc2c(NS(=O)(=O)c3cn(C)cn3)cccc2C(=O)N([C@H](C)CO)C[C@@H]1C` the value was “inactive”.
For `C[C@H](CO)N1C[C@H](C)[C@H](CN(C)C(=O)CN(C)C)Oc2cc(-c3cncnc3)ccc2S1(=O)=O` the value was “inactive”.

The values are drawn from the antibiotic and cytotoxicity screens of Wong et al. (2023).
